Assay results published in PubChem BioAssay AID1476 (National Center for Advancing Translational Sciences (NCATS), 2009).
The campaign covered roughly 200,000 compounds. About 4,500 (2.2%) were called active. Inconclusive means that the source gave no clear call. Such entries were picked first, then a sample of the others. Calls come from the whole dose curve; as a rule, active = well fitted inhibition curve with a large enough effect; inconclusive = small, poorly fitted or top-dose-only effect, or effect the other way; inactive = flat fitted curve, though single readings scatter. Potencies beside an inconclusive call are fits to weak or partial responses and may not hold up.

Biological target: Cruzipain (Trypanosoma cruzi) (UniProt P25779)
Assay: qHTS Assay for Promiscuous and Specific Inhibitors of Cruzain (without detergent); note: nearly all actives have a fitted effect of over 40% in size;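 for max response, negative = inhibition: plate controls were enzyme without inhibitor for no effect and buffer without enzyme for full effect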
Settings: purified cruzain, Z-FR-AMC fluorescence, no detergent
How it was run: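 Detergent-free condition (0.00005% Triton X-100) in acetate buffer pH 5.5 with DTT. 1.5 nM enzyme and compound were pre-mixed 15 min, then 2 uM Z-FR-AMC substrate added; reaction progress from fluorescence change between first and third reads (60 s).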
Potency is the fitted concentration of half-maximal effect; tags give direction and shape of the fitted curve.

Chain of UniProt P25779 (P25779 whole entry, looked up): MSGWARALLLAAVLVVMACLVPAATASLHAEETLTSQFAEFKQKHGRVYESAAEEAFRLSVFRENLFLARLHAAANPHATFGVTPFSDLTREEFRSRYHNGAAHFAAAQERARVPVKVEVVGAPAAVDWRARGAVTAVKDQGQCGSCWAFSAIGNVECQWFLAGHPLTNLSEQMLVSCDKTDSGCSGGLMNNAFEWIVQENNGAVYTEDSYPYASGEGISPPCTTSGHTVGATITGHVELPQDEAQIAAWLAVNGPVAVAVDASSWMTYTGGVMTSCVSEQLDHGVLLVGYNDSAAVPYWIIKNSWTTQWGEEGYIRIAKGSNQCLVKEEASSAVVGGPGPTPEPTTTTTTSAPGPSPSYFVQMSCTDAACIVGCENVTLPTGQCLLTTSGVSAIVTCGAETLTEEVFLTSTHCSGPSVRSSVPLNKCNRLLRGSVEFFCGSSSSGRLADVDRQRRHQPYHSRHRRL

Question: How did the max response, negative = inhibition turn out when `CCc1ccc(CNC(=O)COc2cc(=O)n(CC)c3ccccc23)cc1` was run?
Answer: inactive: 22.8%

Question: `Brc1cc2c(cc1/C=N/Nc1nc3ccccc3s1)OCO2` was tested. Which Potency did it give?
Answer: active: 20 µM

Question: With `CC(C)NC(=O)c1ccc2c(=O)n(C3CCCC3)c(=S)[nH]c2c1` as the compound, how does the Potency read?
Answer: inconclusive: 39.8 µM [inhibitor, single point]

Question: `O=C(Cn1cncc1-c1ccc([N+](=O)[O-])cc1)Nc1cccc2ccccc12` was tested. Which Potency did it give?
Answer: inconclusive: 31.6 µM [inhibitor, single point]

Question: For `Cc1cccc(C)c1NC(=O)C1(N2CCN(C(=O)c3ccco3)CC2)CCCCC1`, which Potency is on record?
Answer: inconclusive: 31.6 µM [activator, single point]

Question: How did the max response, negative = inhibition turn out when `COC(=O)c1ccc(C(NC(=O)OCc2ccccc2)/C(=C/[C@@H](C)C(=O)NCc2ccncc2)c2cccnc2)cc1` (some centres undefined) was run?
Answer: inactive: 12.1%

Question: `COc1ccc(NC(=O)c2ccc3c(=O)n(Cc4ccco4)c(=S)[nH]c3c2)c(OC)c1` was tested. Which Potency did it give?
Answer: inconclusive: 31.6 µM [inhibitor, single point]

Question: `Cc1nc2c(-c3ccc(F)cc3)c(C)nn2c(C)c1CCC(=O)N1CCC(Cc2ccccc2)CC1` was tested. Which Potency did it give?
Answer: inconclusive: 15.8 µM [activator, partial curve]

Question: `N#Cc1ccccc1NC(=O)c1cc2c(=O)n3ccccc3nc2s1` was tested. Which max response, negative = inhibition did it give?
Answer: inactive: 4.4%

Question: How did the Potency turn out when `Cc1ccc2cc(C(c3nnnn3Cc3ccccc3)N3CCc4ccccc43)c(=O)[nH]c2c1C` (centres undefined) was run?
Answer: inconclusive: 39.8 µM [inhibitor, single point]

Question: Which Potency does the source give for `COc1ccccc1C1CC(c2cccs2)=Nc2ccccc2S1` (centres undefined) here?
Answer: inconclusive: 31.6 µM [inhibitor, single point]

Question: How did the Potency turn out when `CCn1cc(CNC(=O)c2cc(-c3ccccc3OC)nc3ccccc23)c(C)n1` was run?
Answer: inconclusive: 31.6 µM [activator, single point]

Question: Which Potency does the source give for `COc1cccc(N2CCN(C(=O)c3cccc(NC(=O)c4nsc5ccccc45)c3)CC2)c1` here?
Answer: inconclusive: 39.8 µM [inhibitor, single point]

Question: Which max response, negative = inhibition does the source give for `Cc1nn(-c2ccccc2)c(OC(=O)c2ccccc2F)c1S(=O)(=O)c1ccccc1` here?
Answer: inactive: 4.59%

Question: With `COc1cccc2sc(N(Cc3cccnc3)C(=O)COc3ccccc3)nc12` as the compound, how does the Potency read?
Answer: inconclusive: 39.8 µM [activator, single point]

Question: Which max response, negative = inhibition does the source give for `CCOc1ccc(C(=O)Nc2nnc(SCc3cc(=O)c4cc(C)ccc4[nH]3)s2)cc1` here?
Answer: inactive: -4.46%

Question: `COCCCNC(=O)C1CCN(C(=O)c2cc3sccc3n2Cc2ccc(F)cc2)CC1` was tested. Which Potency did it give?
Answer: inconclusive: 31.6 µM [activator, single point]

Question: With `COc1cc(/C=C\C(=O)N2CCC=CC2=O)cc(OC)c1OC` as the compound, how does the max response, negative = inhibition read?
Answer: inactive: -13.3%

Question: With `O=S(=O)(CCc1ccccc1)c1nnnn1C1CCCCC1` as the compound, how does the max response, negative = inhibition read?
Answer: inactive: 0.646%

Question: How did the max response, negative = inhibition turn out when `COCCCNC(=O)CCn1c(=O)c2ccccc2n(CC(=O)Nc2c(C)cc(C)cc2C)c1=O` was run?
Answer: inactive: -14.1%

Question: `COc1ccc2c(=O)c3c(=O)n(Cc4ccco4)c(-c4cc(OC)c(OC)c(OC)c4)nc3oc2c1` was tested. Which Potency did it give?
Answer: inconclusive: 31.6 µM [activator, single point]

Question: Which Potency does the source give for `Nc1cc2c(nc3c4ccccc4c(N)cc3[n+]2-c2cccc3ccccc23)c2ccccc12` (tested in a mixture with another compound) here?
Answer: active: 1.26 µM

Question: `Cc1cc(C(=O)NP(=O)(N2CCOCC2)N2CCOCC2)c(C)n1-c1ccc(Br)cc1` was tested. Which Potency did it give?
Answer: inconclusive: 31.6 µM [activator, single point]

Question: How did the Potency turn out when `CCc1ccccc1NC(=O)Cn1c(=O)c2cccn2c2ccc(F)cc21` was run?
Answer: inconclusive: 3.98 µM [inhibitor, single point]

Question: `COc1ccc(CNC(=O)c2ccc3c(c2)N(Cc2cccc(Cl)c2)C(=O)c2ccccc2S3)c(OC)c1` was tested. Which Potency did it give?
Answer: active: 12.6 µM

Question: `C/C(CC(c1ccccc1)c1c(O)c2ccccc2oc1=O)=N\NC(N)=S` (centres undefined) was tested. Which Potency did it give?
Answer: inconclusive: 20 µM [inhibitor, partial curve]

Question: Which max response, negative = inhibition does the source give for `COc1ccc(C[C@@H](N)c2ccc(OC)cc2)cc1` here?
Answer: inactive: -4.41%

Question: `Cc1ccc(CNC(=O)c2cc3c(=O)n(C)c4ccccc4c3n2C)cc1` was tested. Which Potency did it give?
Answer: inconclusive: 39.8 µM [inhibitor, single point]

Question: `Cc1oc(-c2ccccc2)cc1C(=O)Nc1ccc2ccccc2c1` was tested. Which Potency did it give?
Answer: inconclusive: 31.6 µM [inhibitor, single point]

Question: How did the Potency turn out when `O=C(/C=C/c1ccc(Cl)cc1)NC(=S)Nc1ccc(N2CCOCC2)c(Cl)c1` was run?
Answer: inconclusive: 25.1 µM [inhibitor, single point]

Question: Which Potency does the source give for `CCOC(=O)C1CCN(S(=O)(=O)c2cc(-c3onc(C)c3C)ccc2OC)CC1` here?
Answer: inconclusive: 39.8 µM [activator, single point]

Question: `Cc1cc(C(=O)CSc2nc3ccc(Cl)cc3[nH]2)c(C)n1C` was tested. Which Potency did it give?
Answer: inconclusive: 31.6 µM [inhibitor, single point]

Question: For `CCOc1cc2[nH]c(=O)n(Cc3ccc(C(=O)NCCOC)cc3)c(=O)c2cc1OCC`, which Potency is on record?
Answer: inconclusive: 25.1 µM [activator, single point]

Question: How did the max response, negative = inhibition turn out when `CCNc1ncc2nc(C)c(=O)n(Cc3cccs3)c2n1` was run?
Answer: inactive: -3.95%

Question: Which Potency does the source give for `CCCCn1c2ccc(F)cc2c2nnc(SCCN3CCCCC3)nc21` here?
Answer: inconclusive: 15.8 µM [inhibitor, partial curve]

Question: For `COCCn1nnnc1C(c1ccccn1)N1CCN(c2cccc(C)c2C)CC1` (centres undefined), which Potency is on record?
Answer: inconclusive: 39.8 µM [activator, single point]

Question: With `CCOc1ccccc1CNC(=O)c1cc2c(=O)n(Cc3ccccc3)ccc2nc1C` as the compound, how does the Potency read?
Answer: inconclusive: 39.8 µM [activator, single point]

Question: How did the Potency turn out when `Clc1ccc(-c2cn3cccnc3n2)cc1Cl` was run?
Answer: inconclusive: 3.16 µM [inhibitor, full curve, poor fit]

Question: For `CCOC(=O)N1CCN(C(=O)c2ccc3c(=O)n(Cc4ccccc4)c(=S)[nH]c3c2)CC1`, which Potency is on record?
Answer: inconclusive: 39.8 µM [activator, single point]

Question: With `COc1ccccc1NC(=O)CCn1cnc2ccccc2c1=O` as the compound, how does the max response, negative = inhibition read?
Answer: inactive: -15.5%

Question: Which Potency does the source give for `COc1ccc(CCn2c(N)cc(=O)[nH]c2=S)cc1OC` here?
Answer: inconclusive: 31.6 µM [inhibitor, single point]

Question: How did the Potency turn out when `CC(=O)C1=C(O)CC(c2ccccc2)CC1=NCCc1c(C)[nH]c2ccc(C)cc12` (centres undefined) was run?
Answer: inconclusive: 39.8 µM [activator, single point]

Question: Which Potency does the source give for `O=C(COC(=O)c1n[nH]c2ccccc12)NC(=O)NC12CC3CC(CC(C3)C1)C2` here?
Answer: inconclusive: 31.6 µM [inhibitor, single point]

Question: With `Cc1sc2ncnc(SCc3ccco3)c2c1C` as the compound, how does the max response, negative = inhibition read?
Answer: inactive: -17%

Question: `COc1cccc(NC(=O)c2sc3nc(C)c(C(=O)Nc4ccc(C)cc4C)c(-c4sccc4C)c3c2N)c1` was tested. Which Potency did it give?
Answer: inconclusive: 31.6 µM [inhibitor, single point]

Question: With `COc1ccc(S(=O)(=O)c2c(Nc3ccc(F)cc3)sc(C(=O)c3ccc(C)cc3C)c2N)cc1` as the compound, how does the Potency read?
Answer: active: 5.01 µM

Question: `COc1cccc(C(=O)COc2ccc3c(C)c(Cc4ccccc4)c(=O)oc3c2C)c1` was tested. Which Potency did it give?
Answer: inconclusive: 20 µM [inhibitor, partial curve]

Question: Which Potency does the source give for `Cc1c(C)c2cc(Cl)c(O)c(CN(C)C)c2oc1=O` here?
Answer: inconclusive: 31.6 µM [inhibitor, single point]

Question: Which max response, negative = inhibition does the source give for `Cc1noc(C)c1C(=O)N1CCC[C@@]2(CCN(C(=O)NC(C)C)C2)C1` here?
Answer: inactive: 3.3%

Question: How did the Potency turn out when `COc1ccc(C(=O)Nc2cc(C(C)C)c(O)c(S(=O)(=O)c3ccc(OC)cc3)c2C)cc1` was run?
Answer: active: 25.1 µM

Question: For `CCOc1ccc(C(=O)Nc2ccc(N3CCCC3)cc2)cc1`, which Potency is on record?
Answer: active: 7.94 µM

Question: For `Cc1ccc(Nc2nnc(-c3ccc(C)c(S(=O)(=O)N4CCN(C)CC4)c3)c3ccccc23)c(C)c1`, which max response, negative = inhibition is on record?
Answer: inactive: 4.24%

Question: Which Potency does the source give for `CCOc1ccc2nc(N3CCC(C(=O)N4CCN(c5ccccn5)CC4)CC3)sc2c1` here?
Answer: inconclusive: 25.1 µM [activator, single point]

Question: How did the max response, negative = inhibition turn out when `CCn1cc(CCC(=O)NCc2ccc(F)cc2)c2ccccc21` was run?
Answer: inactive: -13.6%

Question: `CCCn1c(=O)n(-c2cc(Cl)c(OC)cc2OC)c(=O)c2c3c(sc21)CN(C(C)=O)CC3` was tested. Which Potency did it give?
Answer: inconclusive: 39.8 µM [activator, single point]

Question: For `CCOc1ccc(C(CCc2ccccc2)NC(=O)c2ccc(OC)c(OC)c2)cc1OCC` (centres undefined), which Potency is on record?
Answer: inconclusive: 25.1 µM [activator, partial curve]

Question: How did the max response, negative = inhibition turn out when `Cc1cc(C)c(Cn2c(CCNC(=O)c3ccco3)nc3ccccc32)c(C)c1` was run?
Answer: inactive: 4.95%

Question: Which Potency does the source give for `COC(=O)CC1C(C)(C)C(OC(C)=O)C2CC3C4CC(=O)OC(c5ccoc5)[C@]4(C)CCC3[C@@]1(C)C2=O` (some centres undefined) here?
Answer: inconclusive: 39.8 µM [activator, single point]

Question: How did the Potency turn out when `CC1=C(C(=O)Nc2cccnc2)C(c2cccc(O)c2)n2nc(SCc3ccccc3)nc2N1` (centres undefined) was run?
Answer: inconclusive: 39.8 µM [inhibitor, single point]

Question: Which max response, negative = inhibition does the source give for `CCc1nnc(SCC(=O)N(C)c2ccccc2)c2cc3sccc3n12` here?
Answer: inactive: 1.28%

Question: For `O=C(CSc1nc2c(c(=O)n1-c1ccc(Cl)cc1)SCC2)Nc1ccc2c(c1)OCCO2`, which Potency is on record?
Answer: inconclusive: 31.6 µM [inhibitor, single point]

Question: `COc1cccc(OCCn2c(C)c(/C=N/n3cnnc3)c3ccccc32)c1` was tested. Which Potency did it give?
Answer: inconclusive: 39.8 µM [activator, single point]

Question: How did the Potency turn out when `COc1ccc(NC(=O)Cn2cc(S(=O)(=O)c3ccc(C)cc3)c(=O)c3ccccc32)cc1OC` was run?
Answer: inconclusive: 39.8 µM [activator, single point]

Question: How did the Potency turn out when `CCOC(=O)c1c(NC(=O)CCN2C(=O)c3cccc([N+](=O)[O-])c3C2=O)sc(C(=O)OC(C)C)c1C` was run?
Answer: inconclusive: 15.8 µM [inhibitor, partial curve, poor fit]
